Data on 167 variants can be found in the RNAGym collection of RNA variant scans (doi:10.7554/elife.90254).

Read counts are not given, so values of variants with three or more changes are uncertain.

The labels stand for the following.
B1: LINE1-mini (parent)
chain: GGCAGAGCUCAACACAGCGUGGCAAAGUGGCUGUGGCUAGACUGCC

Variants of B1 are the subject of this data set. In words: self-cleavage, relative activity (ratio to wild type); higher = more cleavage; in vitro, sequencing; the parent is a self-cleaving ribozyme.
As to G19A G22C A26G G27A A41C, the self-cleavage was determined as 0.08.

Take G21A A24G C37A G40U: the self-cleavage stood at 0.37.

G19C G21U G27C G35C: the self-cleavage was determined as 0.33. The result for U20A C37U U38A C45G C46U reads 0.05; that for G21C A25G U28G G36U, 0.01. The result for G19U C23A G35U reads 0.14; that for G19U C23A C37A A41G, 0.05.

As for G19U G30A U34A G36U, the self-cleavage was determined as 0.04. The result for G19U G22U G30U U34C reads 0.04; that for G19C U32G U34C, 0.08. Under U20G A26U G27C U28G U32C stands 0.18; under G21C C23A G27U G35U, 0.07. Under G19C A26G U34G stands 0.07. As to G19U G21U A24G U32C C45A, the self-cleavage came to 0.04. Under G19U G27C U34G stands 0.26; under G21A G29A C45G, 1.54. Under G21A C23A C45A stands 0.59; under U20A A25C A26U U28C U32A C37G C42G, 0.08; under U20A G33A C37U, 0. As to G19U G27A C37U, the self-cleavage stood at 0.03. As to G21A G22U U28G, the self-cleavage amounted to 0.57. The result for G21A G29U A41U reads 0.74; that for G21C A39G C45U, 0.14; that for U20C A26G G44C, 0. As to G19C U28C G30C, the self-cleavage stood at 0.19. Under U20C A24U G33C stands 0.05; under U20G G22A A26G, 0.27; under G19A C31A C37U U43C, 0.06.

Regarding U20A G35C U38C, the self-cleavage was 0.01. The result for G19C A25U G29C reads 0.44. The result for G19C C31G G40C reads 0.03; that for G19C C31G G40A, 0.04.

Take U20A A24C U28G: the self-cleavage was 0.16. Turning to U20G A26U U38A, the self-cleavage stood at 0.44. For U20C G21A C23A, the self-cleavage stood at 0.06. Under U20G A26C U32C stands 0.03. The result for G19U A24U U28A reads 0.53; that for U20C U32G C42G C45A, 0; that for U20A C42U C45G, 0.03. The result for U20C G22C U38G reads 0; that for G21A G29U G33U C42G, 0.05; that for G19C G35A G36U, 0.26. In the case of G21A G33C U38A, the self-cleavage worked out at 0.05. With G19A G30U C31A, the self-cleavage came to 0.35. Under G21A G35C A41C stands 0.02; under G19U C23G U34C G36C U38G A39G, 0.03; under G19U A24G U28A U38A, 0.22. The result for U20G G21A U38A A41C reads 0.03; that for U20A A41G C46A, 0.04; that for G19U G22U C31G, 0. Turning to G19A C37G C45U, the self-cleavage amounted to 0.02. The result for G19C G21A U38A G44C reads 0.03; that for G19A G33A C46G, 0.06; that for G21C A26G G27A, 0.58. Under U20A U32C G35A stands 0.01; under U20A G36A A39C, 1.63; under G21A C37U A39G C45U, 0.03.

On to G21A A24U G30C G36C, for which the self-cleavage was 0.13. The result for G19U A26U G33A G40C reads 0.01; that for G19C G30U U32A C37G, 0.06; that for G19C G21U C23G A24U, 0.3. For the variant G19A C31U G40U, the self-cleavage stood at 0.05. Turning to G19C U20A G35A C42A, the self-cleavage was 0.01. With G19C A24C A25C, the self-cleavage was 0.13. U20C G21U U34A: the self-cleavage was 0.13.

As to G19C A26G A39G, the self-cleavage came out at 0.03. The result for G19U U32G G40A A41C reads 0.05. For G19U C23A G36A C46A, the self-cleavage came to 0.03. The result for U20A A26U G33U G36A G40A reads 0.05; that for G19U U28A G35A G36C C45A, 0.62; that for G21A C42G G44C, 0.08. On to G19U C37U U38G C45A, for which the self-cleavage is 0.02.

For the variant G19C A25C G44U, the self-cleavage stood at 0.25. Under G19U C23G G27C C45U stands 0.84; under G19C G35A U43A C45G, 0.03. The result for G19A G21U C23A G29A G36C reads 0.15. The result for G21A A26U G36A G40A reads 0.36. Turning to G19U G22U A39G G40U, the self-cleavage amounted to 0.02.

Turning to U20A U43G G44A C46A, the self-cleavage amounted to 0.04. For the variant U20A G22A C23U C46G, the self-cleavage worked out at 0.21. Under G19U A26U G36A stands 0.04; under U20C C23A G36A, 0.11; under G19U G36U C37G, 0.01.

For U20C A25U C45G, the self-cleavage amounted to 0.01. As for G21A A24C C42G, the self-cleavage is 0.12. Under G19U G33C G44C stands 0.06; under U20A G35U G36U, 0.05; under U20A U28C G29A G36C, 0.07. Under U20C G36A C42U stands 0.02. The result for G19A U28A C31G U34C reads 0.04; that for G21A U34A G35A C46A, 0.01; that for G19A G27C C31A, 0.78. For the variant U20A C23G U28A, the self-cleavage stood at 0.14. In the case of U20G G40U A41U C45G, the self-cleavage was 0.03. The result for U20A C23G G29C G35A G36U reads 0.04.

Consider U20C A39G A41U, for which the self-cleavage worked out at 0. G19U G27C A39C A41U: the self-cleavage was determined as 0.13. Under U20A G35A A41U G44C stands 0.04; under U20A G29C G36U, 0.02; under G19U A26G C46G, 0.1.

Turning to U20G G21U U28G, the self-cleavage came to 0.47.

On to G19A G22U G36U, for which the self-cleavage is 0.04. The result for G19C G21U G27A G40A C42A C45U reads 0; that for U20C G22U G40C, 0.04. The result for G19U G21U A41C U43C C45G C46A reads 0.04; that for U20A G36U G44A, 0.01. Take U20A G36C C37G: the self-cleavage was determined as 0.01. Under G19U A26U C46G stands 0.85; under G19A U20C U34A, 0.28; under G21A A24C G30C C37A G44U C46A, 0.02. The result for G19U G30U C45U reads 0.48; that for U20G U28G C42A, 0.12; that for U20G A26G G44A, 0.04. Under G19A C23U A26U stands 0.86.

In the case of U20G U28C U34C, the self-cleavage was 0.2. Under G21A G27C U38C C42A stands 0.09; under G19C G21A G30C, 0.45; under G19A G30U C37A, 0. Consider U20A G21A G33C G36U, for which the self-cleavage was found to be 0.03. The result for U20G C23U C37G G44C C45A C46A reads 0.02. The result for U20A G21C U28A reads 0.65; that for G19C G27A G30C, 0.12. The result for G19A G22A G29U U32G C42A reads 0.03. In the case of U20G A25U A39G A41U, the self-cleavage stood at 0.02. The result for G19U C37A G44A reads 0.02. In the case of G19C A25G G44U, the self-cleavage was found to be 0.26. The result for G21A G29A U32G G33U C42U reads 0.03. As to G19U A41U U43A C45U, the self-cleavage came to 0.05. Take G19U G22A G27C: the self-cleavage stood at 0.6. In the case of U20A U28A G29C, the self-cleavage was 0.21. On to G21C A26C G40U, for which the self-cleavage was found to be 0.14. Consider U20G G22C G30U A39C, for which the self-cleavage turned out to be 0. Regarding G21A A25C C42G, the self-cleavage came out at 0.05. With G19C G29U G44C, the self-cleavage was found to be 0.07. The result for G19U U28G G29U C37A reads 0.05; that for U20A G29A G35A A39G, 0.05; that for U20G A26U A41C, 0.05. With U20C G29U U34C U38A, the self-cleavage was determined as 0.03. G19C G35U A41C: the self-cleavage came out at 0.01. As to U20A U38C C45G, the self-cleavage amounted to 0.03. In the case of G19A G21A G30U, the self-cleavage is 1.37. Under G19A G22U A41U stands 0.23.

Consider U20G A24U G30C, for which the self-cleavage turned out to be 0.7. Under G19A G21A U28C stands 1.27; under U20G G29A G35C, 0.08; under G19A G27U C37U C45U, 0.04.

Regarding U20G A25U G27A, the self-cleavage is 0.93. As for U20C G21U U43A, the self-cleavage was 0.33. In the case of G19U A26C G29A, the self-cleavage worked out at 0.34. The result for G21A G30U G40A reads 0.06.

U20A G21U G29U G33A: the self-cleavage was found to be 1.24. Regarding G21C A39U G40A C45G, the self-cleavage stood at 0.02. The result for G19C C23U G29A C45U reads 0.29; that for G19U U32G G44C, 0.04; that for G21A U32C U38C, 0.06. Consider G21A A26U C37A C45G, for which the self-cleavage turned out to be 0.08.

For the variant G19U G33A U38A C42G, the self-cleavage amounted to 0.12. The result for G19A G21U G22A C31A C37U C42U reads 0.04; that for G21A C23A C42U C46U, 0.13; that for G19A A39U C46G, 1.9.

Turning to U20G G21A A25C G30U A41G, the self-cleavage was found to be 0.

For the variant G21A A25U G40U G44C, the self-cleavage was determined as 0.82. As to G21A C23U A25U U32C, the self-cleavage came out at 0.92. The result for G21C A24G U28G G36A U43C reads 0.04. On to G19C C23G G27U C37A A39U, for which the self-cleavage stood at 0. Under U20G A24U A26C G35A A39U U43C C45A stands 0.02. In the case of U20C G22U A24U G27C G36U, the self-cleavage amounted to 0.01.
